Measurements published in article PMC3910374 (Cancer research, 2013).

Biological target: T1, His6-tagged BakΔTM (UniProt Q16611 1-186)
T1 sequence (looked up): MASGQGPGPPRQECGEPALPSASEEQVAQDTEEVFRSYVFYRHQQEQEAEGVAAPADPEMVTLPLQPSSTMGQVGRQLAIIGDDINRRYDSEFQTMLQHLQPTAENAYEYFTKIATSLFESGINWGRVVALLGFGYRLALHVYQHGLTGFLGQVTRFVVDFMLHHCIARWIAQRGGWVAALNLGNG
Assay: SPR

B1: CDK1/cyclin B-phosphorylated Bcl-2ΔTM-His6 (domain or fragment)
chain: not shown
modifications: phosphorylated by CDK1 on Thr69, Ser70, Thr74 and Ser87; multiple different phosphorylated species
  fold tighter binding than unphosphorylated Bcl-2: ~5 fold
